# Results from the supplement of paper PMC8728848.
# Some of the results follow.
# B1: Pwp2 (Candida glabrata) (protein)
# chain: MGSSHHHHHHSSGLVPRGSHMASKNPVELNNVCTFPNDYGRIPGFTVLVGRLGLLISASDYKELLRYPGAFLIATQDTMTTSPNFELTGFPFFTGLYGLTVFPLDLLVELRGYFVPPNSGQYTFTLSDSDDAAIIFLGNPSAFPCGDLQNWPKPSEEDITVTDHLFPSRTLYLIEGVAYPMRIAYYNGIGAGRLNAAFIDPSGTRHTNWEGYIWQYDPCSTCTYS
# Tests used:
# Experiment in all cases: glycan array binding signal (z-score within array); higher = stronger binding
# Conditions in all cases: glycan notation: IUPAC condensed, linker removed
# [1] = biological target: Neu5Ac(a2-3)Gal(b1-4)GlcNAc(b1-6)GalNAc
# Procedure, shortened: (§1)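 Columns mapping to the same glycan were averaged after glycan names were converted to IUPAC-condensed notation. The data come from 3228 arrays in the Consortium for Functional Glycomics database, limited to those with an available protein sequence. Binding is reported as a within-array Z-score averaged across arrays of one protein sequence and across linkers.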
# [2] = biological target: Neu5Ac(a2-3)Gal(b1-4)GlcNAc(b1-6)[Gal(b1-3)]GalNAc
# Procedure, shortened: as §1
# [3] = biological target: Neu5Ac(a2-3)Gal(b1-4)GlcNAc(b1-6)[Neu5Ac(a2-3)Gal(b1-3)]GalNAc
# Procedure, shortened: as §1
# [4] = biological target: Neu5Ac(a2-3)Gal(b1-4)GlcNAc6S
# Procedure, shortened: as §1
# [5] = biological target: Neu5Ac(a2-3)Gal(b1-4)[Fuc(a1-3)]GlcNAc
# Procedure, shortened: as §1
# [6] = biological target: Neu5Ac(a2-3)Gal(b1-4)[Fuc(a1-3)]GlcNAc(b1-2)Man
# Procedure, shortened: as §1
# [7] = biological target: Neu5Ac(a2-3)Gal(b1-4)[Fuc(a1-3)]GlcNAc(b1-3)Gal
# Procedure, shortened: as §1
# [8] = biological target: Neu5Ac(a2-3)Gal(b1-4)[Fuc(a1-3)]GlcNAc(b1-3)Gal(b1-4)GlcNAc
# Procedure, shortened: as §1
# [9] = biological target: Neu5Ac(a2-3)Gal(b1-4)[Fuc(a1-3)]GlcNAc(b1-3)Gal(b1-4)[Fuc(a1-3)]GlcNAc(b1-3)Gal(b1-4)[Fuc(a1-3)]GlcNAc
# Procedure, shortened: as §1
# [10] = biological target: Neu5Ac(a2-3)Gal(b1-4)[Fuc(a1-3)]GlcNAc(b1-3)GalNAc
# Procedure, shortened: as §1
# [11] = biological target: Neu5Ac(a2-3)Gal(b1-4)[Fuc(a1-3)]GlcNAc(b1-6)[Gal(b1-3)]GalNAc
# Procedure, shortened: as §1
# [12] = biological target: Neu5Ac(a2-3)Gal(b1-4)[Fuc(a1-3)]GlcNAc(b1-6)[Neu5Ac(a2-3)Gal(b1-3)]GalNAc
# Procedure, shortened: as §1
# [13] = biological target: Neu5Ac(a2-3)Gal(b1-4)[Fuc(a1-3)]GlcNAc6S
# Procedure, shortened: as §1
# [14] = biological target: Neu5Ac(a2-3)Gal6S(b1-4)GlcNAc
# Procedure, shortened: as §1
# [15] = biological target: Neu5Ac(a2-3)Gal6S(b1-4)[Fuc(a1-3)]GlcNAc
# Procedure, shortened: as §1
# Neu5Ac(a2-3)GalNAc = biological target: Neu5Ac(a2-3)GalNAc
# Procedure, shortened: as §1
# [16] = biological target: Neu5Ac(a2-3)GalNAc(b1-4)GlcNAc
# Procedure, shortened: as §1
# [17] = biological target: Neu5Ac(a2-3)[GalNAc(b1-4)]Gal(b1-4)Glc
# Procedure, shortened: as §1
# [18] = biological target: Neu5Ac(a2-3)[GalNAc(b1-4)]Gal(b1-4)GlcNAc
# Procedure, shortened: as §1
# [19] = biological target: Neu5Ac(a2-3)[GalNAc(b1-4)]Gal(b1-4)GlcNAc(b1-3)GalNAc
# Procedure, shortened: as §1
# [20] = biological target: Neu5Ac(a2-3)[Neu5Ac(a2-6)]GalNAc
# Procedure, shortened: as §1
# Neu5Ac(a2-6)Gal = biological target: Neu5Ac(a2-6)Gal
# Procedure, shortened: as §1
# [21] = biological target: Neu5Ac(a2-6)Gal(b1-3)GlcNAc(b1-3)[Gal(b1-4)GlcNAc(b1-6)]Gal(b1-4)Glc
# Procedure, shortened: as §1
# Neu5Ac(a2-6)Gal(b1-4)Glc = biological target: Neu5Ac(a2-6)Gal(b1-4)Glc
# Procedure, shortened: as §1
# [22] = biological target: Neu5Ac(a2-6)Gal(b1-4)GlcNAc
# Procedure, shortened: as §1
# [23] = biological target: Neu5Ac(a2-6)Gal(b1-4)GlcNAc(b1-2)Man
# Procedure, shortened: as §1
# [24] = biological target: Neu5Ac(a2-6)Gal(b1-4)GlcNAc(b1-2)Man(a1-3)Man(b1-4)GlcNAc(b1-4)GlcNAc
# Procedure, shortened: as §1
# [25] = biological target: Neu5Ac(a2-6)Gal(b1-4)GlcNAc(b1-2)Man(a1-3)[Gal(b1-4)GlcNAc(b1-2)Man(a1-6)]Man(b1-4)GlcNAc(b1-4)GlcNAc
# Procedure, shortened: as §1
# [26] = biological target: Neu5Ac(a2-6)Gal(b1-4)GlcNAc(b1-2)Man(a1-3)[GlcNAc(b1-4)][Neu5Ac(a2-6)Gal(b1-4)GlcNAc(b1-2)Man(a1-6)]Man(b1-4)GlcNAc(b1-4)GlcNAc
# Procedure, shortened: as §1
# [27] = biological target: Neu5Ac(a2-6)Gal(b1-4)GlcNAc(b1-2)Man(a1-3)[Man(a1-6)]Man(b1-4)GlcNAc(b1-4)GlcNAc
# Procedure, shortened: as §1
# [28] = biological target: Neu5Ac(a2-6)Gal(b1-4)GlcNAc(b1-2)Man(a1-3)[Neu5Ac(a2-3)Gal(b1-4)GlcNAc(b1-2)Man(a1-6)]Man(b1-4)GlcNAc(b1-4)GlcNAc
# Procedure, shortened: as §1
# [29] = biological target: Neu5Ac(a2-6)Gal(b1-4)GlcNAc(b1-2)Man(a1-3)[Neu5Ac(a2-6)Gal(b1-4)GlcNAc(b1-2)Man(a1-6)]Man(b1-4)GlcNAc(b1-4)GlcNAc
# Procedure, shortened: as §1
# [30] = biological target: Neu5Ac(a2-6)Gal(b1-4)GlcNAc(b1-2)Man(a1-3)[Neu5Ac(a2-6)Gal(b1-4)GlcNAc(b1-2)Man(a1-6)]Man(b1-4)GlcNAc(b1-4)[Fuc(a1-6)]GlcNAc
# Procedure, shortened: as §1
# [31] = biological target: Neu5Ac(a2-6)Gal(b1-4)GlcNAc(b1-2)Man(a1-6)Man(b1-4)GlcNAc(b1-4)GlcNAc
# Procedure, shortened: as §1
# [32] = biological target: Neu5Ac(a2-6)Gal(b1-4)GlcNAc(b1-2)Man(a1-6)[Gal(b1-4)GlcNAc(b1-2)Man(a1-3)]Man(b1-4)GlcNAc(b1-4)GlcNAc
# Procedure, shortened: as §1
# [33] = biological target: Neu5Ac(a2-6)Gal(b1-4)GlcNAc(b1-2)Man(a1-6)[GlcNAc(b1-2)Man(a1-3)]Man(b1-4)GlcNAc(b1-4)GlcNAc
# Procedure, shortened: as §1
# [34] = biological target: Neu5Ac(a2-6)Gal(b1-4)GlcNAc(b1-2)Man(a1-6)[Man(a1-3)]Man(b1-4)GlcNAc(b1-4)GlcNAc
# Procedure, shortened: as §1
# [35] = biological target: Neu5Ac(a2-6)Gal(b1-4)GlcNAc(b1-2)[Neu5Ac(a2-6)Gal(b1-4)GlcNAc(b1-4)]Man(a1-3)[GlcNAc(b1-4)][Neu5Ac(a2-6)Gal(b1-4)GlcNAc(b1-2)[Neu5Ac(a2-6)Gal(b1-4)GlcNAc(b1-6)]Man(a1-6)]Man(b1-4)GlcNAc(b1-4)GlcNAc
# Procedure, shortened: as §1
# [36] = biological target: Neu5Ac(a2-6)Gal(b1-4)GlcNAc(b1-2)[Neu5Ac(a2-6)Gal(b1-4)GlcNAc(b1-4)]Man(a1-3)[GlcNAc(b1-4)][Neu5Ac(a2-6)Gal(b1-4)GlcNAc(b1-4)Man(a1-6)]Man(b1-4)GlcNAc(b1-4)GlcNAc
# Procedure, shortened: as §1
# [37] = biological target: Neu5Ac(a2-6)Gal(b1-4)GlcNAc(b1-2)[Neu5Ac(a2-6)Gal(b1-4)GlcNAc(b1-6)]Man(a1-6)[Neu5Ac(a2-6)Gal(b1-4)GlcNAc(b1-2)Man(a1-3)][GlcNAc(b1-4)]Man(b1-4)GlcNAc(b1-4)GlcNAc
# Procedure, shortened: as §1
# [38] = biological target: Neu5Ac(a2-6)Gal(b1-4)GlcNAc(b1-3)Gal(b1-3)GlcNAc
# Procedure, shortened: as §1
# [39] = biological target: Neu5Ac(a2-6)Gal(b1-4)GlcNAc(b1-3)Gal(b1-4)GlcNAc
# Procedure, shortened: as §1
# [40] = biological target: Neu5Ac(a2-6)Gal(b1-4)GlcNAc(b1-3)Gal(b1-4)GlcNAc(b1-2)Man(a1-3)[Neu5Ac(a2-6)Gal(b1-4)GlcNAc(b1-3)Gal(b1-4)GlcNAc(b1-2)Man(a1-6)]GalNAc
# Procedure, shortened: as §1
# [41] = biological target: Neu5Ac(a2-6)Gal(b1-4)GlcNAc(b1-3)Gal(b1-4)GlcNAc(b1-3)Gal(b1-4)GlcNAc
# Procedure, shortened: as §1
# [42] = biological target: Neu5Ac(a2-6)Gal(b1-4)GlcNAc(b1-3)Gal(b1-4)GlcNAc(b1-3)Gal(b1-4)GlcNAc(b1-2)Man(a1-3)[Neu5Ac(a2-6)Gal(b1-4)GlcNAc(b1-3)Gal(b1-4)GlcNAc(b1-3)Gal(b1-4)GlcNAc(b1-2)Man(a1-6)]GalNAc
# Procedure, shortened: as §1
binder,measurement,setting,value
B1,glycan array binding signal (z-score),[1],4.01
same,glycan array binding signal (z-score),[2],0.811
same,glycan array binding signal (z-score),[3],-0.533
same,glycan array binding signal (z-score),[4],-0.485
same,glycan array binding signal (z-score),[5],-0.329
same,glycan array binding signal (z-score),[6],1.42
same,glycan array binding signal (z-score),[7],-0.247
same,glycan array binding signal (z-score),[8],0.095
same,glycan array binding signal (z-score),[9],-0.334
same,glycan array binding signal (z-score),[10],0.106
same,glycan array binding signal (z-score),[11],-0.613
same,glycan array binding signal (z-score),[12],1.98
same,glycan array binding signal (z-score),[13],0.309
same,glycan array binding signal (z-score),[14],-0.572
same,glycan array binding signal (z-score),[15],-0.356
same,glycan array binding signal (z-score),Neu5Ac(a2-3)GalNAc,-0.36
same,glycan array binding signal (z-score),[16],-0.407
same,glycan array binding signal (z-score),[17],0.443
same,glycan array binding signal (z-score),[18],-0.488
same,glycan array binding signal (z-score),[19],0.085
same,glycan array binding signal (z-score),[20],0.718
same,glycan array binding signal (z-score),Neu5Ac(a2-6)Gal,-0.621
same,glycan array binding signal (z-score),[21],-0.417
same,glycan array binding signal (z-score),Neu5Ac(a2-6)Gal(b1-4)Glc,-0.356
same,glycan array binding signal (z-score),[22],1.5
same,glycan array binding signal (z-score),[23],-0.406
same,glycan array binding signal (z-score),[24],-0.124
same,glycan array binding signal (z-score),[25],0.06
same,glycan array binding signal (z-score),[26],-0.509
same,glycan array binding signal (z-score),[27],0.092
same,glycan array binding signal (z-score),[28],-0.431
same,glycan array binding signal (z-score),[29],0.268
same,glycan array binding signal (z-score),[30],1.79
same,glycan array binding signal (z-score),[31],-0.349
same,glycan array binding signal (z-score),[32],-0.427
same,glycan array binding signal (z-score),[33],-0.111
same,glycan array binding signal (z-score),[34],0.28
same,glycan array binding signal (z-score),[35],-0.119
same,glycan array binding signal (z-score),[36],0.141
same,glycan array binding signal (z-score),[37],-0.146
same,glycan array binding signal (z-score),[38],-0.459
same,glycan array binding signal (z-score),[39],-0.393
same,glycan array binding signal (z-score),[40],-0.376
same,glycan array binding signal (z-score),[41],-0.474
same,glycan array binding signal (z-score),[42],0.778
